PubChem BioAssay AID1466 (National Center for Advancing Translational Sciences (NCATS), 2008)
The whole screen tested about 200,000 compounds, of which about 10 (0.005%) were called active. Inconclusive means that the source gave no clear call. Such entries were picked first, then a sample of the others. Calls come from the whole dose curve; as a rule, active = well fitted inhibition curve with a large enough effect; inconclusive = small, poorly fitted or top-dose-only effect, or effect the other way, or another doubt; inactive = no such curve, though single readings can be large or run the other way. Where the call is inconclusive, the potency comes from a doubtful curve fit.
Potency is the fitted concentration of half-maximal effect; tags give direction and shape of the fitted curve.
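Throughout, for activity change, negative = inhibition: plate controls were uninhibited enzyme wells for no effect and no-enzyme background for full effect.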

What follows are compounds tested against Lysosomal alpha-glucosidase (Homo sapiens) (UniProt P10253) (assay: qHTS Assay for Inhibitors of Human alpha-Glucosidase as a Potential Chaperone Treatment of Pompe Disease). Settings: purified human GAA, 4-MU-alpha-glucoside fluorescence; activity change, negative = inhibition: at 76.9 µM (top of the series) unless noted.
Method in brief: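 Human enzyme at 4 nM with 400 uM 4-methylumbelliferyl-alpha-D-pyranoside, citrate/phosphate buffer pH 5.0, 0.005% Tween-20, 20 min at room temperature. Compounds up to 77 uM. 4-MU fluorescence (Ex 365/Em 440) read after NaOH/glycine stop; AC50 from Hill fit.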
For `Cc1c(NS(=O)(=O)c2cc(C(=O)OCC(=O)N3CCC(C)CC3)ccc2Cl)c(=O)n(-c2ccccc2)n1C`, the Potency was inconclusive: 56.2 µM [inhibitor, single point].
In the case of `O=C(CN=C1NC(=O)C(c2ccccc2)(c2ccccc2)N1)NCc1ccc(F)cc1`, the Potency is reported as inconclusive: 22.4 µM [inhibitor, partial curve].
In the case of `O=C(O)C1C2C=CC(O2)C1C(=O)NCCCn1ccnc1` (stereo not given), the Potency is reported as inconclusive: 20 µM [activator, partial curve].
`CCOc1ccc(-c2ccc(/C=C3/C(=N)N4C(C)=CSC4=NC3=O)o2)c([N+](=O)[O-])c1` was tested, and the Potency was inconclusive: 20 µM [inhibitor, partial curve].
In the case of `O=C(Nc1ccc([N+](=O)[O-])cn1)c1ccc2c(c1)OCO2`, the Potency is reported as inconclusive: 11.2 µM [inhibitor, single point].
With `CCOC(=O)CNC(=O)COc1ccc(Cl)cc1Br` the Potency was inconclusive: 1.41 µM [inhibitor, full curve, poor fit].
In the case of `O=S(=O)(Nc1cccc(-c2cn3cccnc3n2)c1)c1ccc(Cl)cc1`, the Potency is reported as inconclusive: 31.6 µM [inhibitor, single point].
With `CS(=O)(=O)c1cccc(C(=O)NCc2ccccc2)c1` the Potency was inconclusive: 11.2 µM [inhibitor, single point].
With `Cc1n[nH]c(C)c1CCc1nc2c3ccccc3nc(SCC(N)=O)n2n1` the Potency was inconclusive: 50.1 µM [inhibitor, single point].
In the case of `CCN(CCn1cccn1)Cc1c(C(=O)N2CCCCCCC2)nc2ccc(Cl)cn12`, the activity change, negative = inhibition is reported as inconclusive: 15.4% [activator].
`CCOc1ccc(OCC)c(NC(=O)CN2CCN(c3cccc(C)c3C)CC2)c1` was tested, and the Potency was inconclusive: 56.2 µM [inhibitor, single point].
With `Cc1ccc(C)c(N2CCN(C(=S)Nc3ccc4nc(N5CCOCC5)cc(C)c4c3)CC2)c1` the Potency was inconclusive: 12.6 µM [activator, partial curve].
For `COc1ccc(C(NC(=O)/C=C/c2ccco2)c2ccc(OC)c(OC)c2)cc1OC`, the Potency was inconclusive: 56.2 µM [inhibitor, single point].
For `O=S(=O)(/N=C(\c1ccccc1F)N1CCCCC1)c1ccccc1`, the Potency was inconclusive: 4.47 µM [inhibitor, full curve].
In the case of `Cc1ccc(C2Nc3ccc4ccccc4c3C3=C2C(=O)CC(C)(C)C3)o1` (stereo not given), the activity change, negative = inhibition is reported as inconclusive: 16.8% [activator].
`CC1CCc2sc3nc(NCc4ccco4)n4ncnc4c3c2C1` (stereo not given) was tested, and the activity change, negative = inhibition was inconclusive: -19.6% [inhibitor].
With `CC(C)CCNC(=O)CN(Cc1ccc2c(c1)OCO2)C(=O)Cn1nnc(-c2cccs2)n1` the Potency was inconclusive: 25.1 µM [inhibitor, partial curve, poor fit].
With `O=c1c2c3c(sc2nc2sc(CN4CCCCC4)cn12)CCCC3` the Potency was “inactive”.
For `COc1cc(/C=C2/SC(=Nc3ccc(O)cc3)NC2=O)cc(OC)c1O`, the Potency was inconclusive: 56.2 µM [inhibitor, single point].
For `CCOc1ccc(C(=O)NC(=S)Nc2ncccc2C)cc1[N+](=O)[O-]`, the Potency was inconclusive: 12.6 µM [inhibitor, full curve].
`CCOC(=O)c1sc(C)c2c(=O)n(CCc3ccccc3)nnc12` was tested, and the Potency was inconclusive: 11.2 µM [inhibitor, single point].
For `CCOC(=O)/C(C#N)=C/c1cc(C)n(-c2ccc(C)cc2)c1C`, the activity change, negative = inhibition was inconclusive: -21.3% [inhibitor].
With `O=C(Oc1ccccc1C(=O)N1CCOCC1)c1ccc(Br)cc1` the Potency was inconclusive: 3.16 µM [inhibitor, partial curve].
In the case of `COc1ccccc1[C@@H]1C(c2cccc(Cl)c2)=NN(c2ccc(Br)cc2)[C@H]1C(=O)N1CCOC1=O`, the Potency is reported as inconclusive: 31.6 µM [activator, partial curve].
For `CCOC(=O)N1CCN(C(=O)C2CCCN(S(=O)(=O)c3cccnc3)C2)CC1` (stereo not given), the Potency was inconclusive: 50.1 µM [inhibitor, single point].
For `O=C(CS(=O)(=O)Cc1ccccc1)NCc1ccc2c(c1)OCO2`, the Potency was inconclusive: 0.178 µM [activator, full curve, poor fit].
With `O=C(Oc1ccccc1C(=O)N1CCOCC1)c1ccccc1` the Potency was inconclusive: 11.2 µM [inhibitor, single point].
In the case of `CC(Sc1nnc(Cc2ccc3c(c2)OCO3)o1)C(N)=O` (stereo not given), the activity change, negative = inhibition is reported as inconclusive: 14.4% [activator].
For `CCCS(=O)(=O)N1CCC(C(=O)NCCCN2CCC(Cc3ccccc3)CC2)CC1`, the activity change, negative = inhibition was inconclusive: -18.4% [inhibitor].
`CN(C)c1ccc(/C=[N+](\[O-])C2SC(=S)N(C)C2(C)C)cc1` (stereo not given) was tested, and the Potency was inconclusive: 0.158 µM [inhibitor, full curve, poor fit].
`CSc1nc(-c2ccccc2)cn1-c1ccc(NC(C)=O)cc1` was tested, and the Potency was inconclusive: 35.5 µM [inhibitor, partial curve].
In the case of `CSC1=NCCCN1C(=O)c1c(-c2ccccc2Cl)noc1C`, the Potency is reported as “inactive”.
For `CC(C)C(C(=O)Nc1ccc(N2CCOCC2)cc1)N1C(=O)c2ccccc2C1=O` (stereo not given), the Potency was inconclusive: 39.8 µM [activator, single point].
With `O=C(NC1CCN(C(=O)N2c3ccccc3Sc3ccccc32)CC1)c1ccco1` the Potency was inconclusive: 0.158 µM [inhibitor, full curve, poor fit].
In the case of `CCOc1ccc2nc(CN3CCN(Cc4ccsc4)C(CCO)C3)ccc2c1` (stereo not given), the activity change, negative = inhibition is reported as inconclusive: 11.4% [activator].
In the case of `COc1ccccc1N1CCN(C(=O)CSc2nnc(NC(=O)C3CCC3)s2)CC1`, the Potency is reported as inconclusive: 3.98 µM [inhibitor, single point].
With `O=C1CCCc2ccccc2N1` the activity change, negative = inhibition was inconclusive: 2.37% [activator].
With `O=C(CSc1nnc(-c2ccccc2)o1)Nn1cnnc1` the Potency was “inactive”.
For `COc1cccc(/C(O)=C2\C(=O)C(=O)N(c3ccccn3)C2c2ccccc2OC)c1` (stereo not given), the activity change, negative = inhibition was inconclusive: -16% [inhibitor].
With `COCCNC(=O)CSc1nc2cc(OC)c(OC)cc2c(=O)n1Cc1ccc(OC)cc1` the Potency was “inactive”.
With `CCOC(=O)c1cnc(SCc2nc(N)nc(Nc3ccc(F)cc3)n2)nc1N` the Potency was inconclusive: 35.5 µM [inhibitor, single point].
For `Cc1ccc(C)c(Cn2c(C(=O)OC(C)C)cc3c2ccn3C)c1`, the Potency was inconclusive: 17.8 µM [inhibitor, partial curve].
`Cc1c(N=Cc2ccc(Cl)o2)c(=O)n(-c2ccccc2)n1C` was tested, and the Potency was “inactive”.
With `COC(C#CCCN(C)C)(c1ccccc1)c1ccccc1` the Potency was inconclusive: 50.1 µM [inhibitor, single point].
In the case of `Fc1ccc(NC(=S)NCCN2CCOCC2)cc1`, the activity change, negative = inhibition is reported as inconclusive: 16.1% [activator].
`O=C(Nc1cccc(-c2nc3ncccc3o2)c1)c1ccccc1` was tested, and the Potency was inconclusive: 12.6 µM [inhibitor, single point].
For `CCOc1cc(C2C3=C(CCCC3=O)NC3=C2C(=O)CCC3)cc(Cl)c1O`, the Potency was “inactive”.
For `CCOc1ccc(-c2nnc3ccc(SCc4ccc(C(=O)OC)o4)nn23)cc1`, the Potency was inconclusive: 50.1 µM [inhibitor, partial curve].
With `CC(C(=O)N1CCOCC1)N1C(=O)c2ccccc2C1=O` (stereo not given) the Potency was inconclusive: 3.98 µM [inhibitor, single point].
`CCCCC1=NN(C(=O)c2cccnc2)C(O)(C(F)(F)F)C1` (stereo not given) was tested, and the Potency was inconclusive: 35.5 µM [inhibitor, partial curve, poor fit].
For `CNc1ccc([N+](=O)[O-])cc1C(=O)O`, the Potency was “inactive”.
With `O=C(Cc1ccc([N+](=O)[O-])cc1)N1N=C2CCCCC2C1(O)C(F)(F)F` (stereo not given) the activity change, negative = inhibition was inconclusive: -16.2% [inhibitor] [at 15.4 µM].
In the case of `CCN1c2ccccc2-c2nc3ccccc3n2C1c1ccccn1` (stereo not given), the Potency is reported as inconclusive: 31.6 µM [activator, partial curve].
`CCCCN(CCCC)c1nc2ccccc2nc1NS(=O)(=O)c1ccc(NC(C)=O)cc1` was tested, and the Potency was inconclusive: 2.82 µM [inhibitor, partial curve, poor fit].
`CCCN(c1ccc(OCC)cc1)S(=O)(=O)c1ccc2c(c1)CCN2C(=O)CCC(=O)O` was tested, and the Potency was inconclusive: 56.2 µM [inhibitor, single point].
With `CN(C)C(=O)CSc1nnc(C23CC4CC(CC(C4)C2)C3)o1` the Potency was inconclusive: 11.2 µM [inhibitor, partial curve].
With `CC(=O)c1cccc(NC(=O)C2CCN(S(=O)(=O)c3cccs3)CC2)c1` the Potency was inconclusive: 44.7 µM [inhibitor, single point].
`Brc1ccc(-c2csc(-c3c[nH]c4ccccc34)n2)cc1` was tested, and the Potency was inconclusive: 50.1 µM [inhibitor, single point].
For `CC(=O)N1CCN(C2=Nc3cccc4cccc2c34)CC1`, the Potency was “inactive”.
In the case of `CC(C)CC(c1nnnn1C1CCCC1)N1CCN(c2ccccc2F)CC1` (stereo not given), the Potency is reported as inconclusive: 35.5 µM [inhibitor, single point].
`COc1ccc(-n2c(=S)[nH]c3cc(C(=O)NCCCN4CCCC4=O)ccc3c2=O)cc1` was tested, and the Potency was inconclusive: 1.41 µM [inhibitor, full curve, poor fit].
For `CCn1c2ccccc2c2cc(NC(=O)C(=O)NCC3CCCO3)ccc21` (stereo not given), the activity change, negative = inhibition was inconclusive: 17.9% [activator].
For `Cn1c(SCC(=O)c2c(N)n(C)c(=O)n(C)c2=O)nnc1-c1ccccc1F`, the Potency was inconclusive: 0.158 µM [activator, full curve, poor fit].
In the case of `c1c2c(cc3sc(N4CCOCC4)nc13)OCO2`, the Potency is reported as inconclusive: 0.158 µM [inhibitor, full curve, poor fit].
With `COc1ccc(NC(C)C(=O)Nc2ccc(C(C)(C)C)cc2)cc1Cl` (stereo not given) the Potency was inconclusive: 56.2 µM [inhibitor, single point].
